# Measurements published in PubChem BioAssay AID463173 (ICCB-Longwood Screening Facility, Harvard Medical School, 2010).
# The campaign covered roughly 52,000 compounds. About 4,300 (8.3%) were called active. No stated cut-off is given here; in the data, active means survival mostly below about 52% (no sharp cut-off); inactive means mostly above about 56%. The list shows a part of the results.
# Tested on: DeltatarO mutant
# Assay: S. aureus survival, RN4220 and DeltatarO strains – OD600, teichoic acid synthesis inhibitors, primary screen (AID 463173)
# Settings: S. aureus RN4220 wild type/DeltatarO growth, OD600, 18 h, active compounds read low, screened at 18.75 µg/mL (by protocol)
row,SMILES,survival
1,CSc1cccc(N=C2C(=O)Nc3ccccc32)c1,inactive: 76%
2,CCN1CCN(C(C)C(=O)Nc2ccc3c(c2)OCO3)CC1 (stereo unspecified),inactive: 103%
3,Nn1c(C2CC2)nc2cc(Cl)ccc2c1=O,inactive: 77%
4,CCC(=O)N1CCc2cc(S(=O)(=O)NCCC(=O)NCc3ccccc3Cl)ccc21,inactive: 80%
5,Cc1sc2nc(C(C)C)n3c(=S)[nH]nc3c2c1C,inactive: 74%
6,CCOC(=O)c1ccc(NC(=O)C2CCCN(c3ccc(Sc4ccc(C)cc4)nn3)C2)cc1 (stereo unspecified),inactive: 43%
7,Cc1cc(Br)ccc1NC(=O)CCS(=O)(=O)c1cccc2nsnc12,inactive: 139%
8,CC(=O)NCCNc1nc2c(S(=O)(=O)c3ccc(C)c(C)c3)nnn2c2ccc(Cl)cc12,inactive: 75%
9,COC(=O)c1ccc(-n2nnc(-c3nc(-c4ccc5c(c4)OCO5)no3)c2C)cc1,inactive: 82%
10,CC(C)c1nc2ccc(C(=O)NCCCN3CCN(c4ccccc4F)CC3)cc2o1,inactive: 88%
11,CCN(C(=O)CN(C)S(=O)(=O)c1ccc2c(c1)c(=O)n(C)c(=O)n2C)c1ccc(OC)cc1,inactive: 90%
12,CC1=C(C(=O)OCC2CCCCC2)C(c2ccccc2F)CC(=O)N1 (stereo unspecified),inactive: 91%
13,COc1ccccc1CNC(=O)C1CCCN(c2nnc(-n3c(C)ccc3C)s2)C1 (stereo unspecified),inactive: 73%
14,O=S(=O)(Nc1ccncc1)c1ccccc1,inactive: 70%
15,Cc1ccc(C)c(NC(=O)CN2C(=O)COc3ccc(Cl)cc32)c1,inactive: 69%
16,Cn1c(=O)nc2n(-c3ccc(Cl)c(Cl)c3)c3cc(Cl)ccc3cc-2c1=O,inactive: 87%
17,O=C(Nc1c(C(=O)Nc2ccc(F)cc2)oc2ccccc12)c1ccccc1F,active: 40%
18,CCn1c(SCCOc2ccccc2F)nc2ccccc21,active: 0%
19,C/C(CCc1ccc2c(c1)OCO2)=N\N=C1/NC(=O)CC(C(=O)O)S1 (stereo unspecified),inactive: 78%
20,CCOc1ccccc1C(=O)Nc1ccc2c(c1)N(C)C(=O)c1ccccc1S2,inactive: 70%
21,Cc1cccc(CC(C(=O)Nc2ccccc2)c2nn[nH]n2)c1 (stereo unspecified),inactive: 99%
22,c1ccc(Cn2nnc3c(N4CCCC4)ncnc32)cc1,inactive: 94%
23,Cc1c(C2=CCN(S(=O)(=O)c3ccc(CC(C)C)cc3)CC2)c2ccccc2n1CC(=O)N1CCCC1,inactive: 99%

row,SMILES,survival
1,Cc1nn(-c2ccc(N3CCOCC3)nn2)c(C)c1CCC(=O)NCc1ccc(OC(C)C)cc1,inactive: 74%
2,COc1ccc(C(=O)N(Cc2ccc(C(C)C)cc2)C2CCS(=O)(=O)C2)cc1 (stereo unspecified),inactive: 62%
3,Cc1ccccc1CNS(=O)(=O)c1csc(C(N)=O)c1,inactive: 120%
4,Cc1nc2nc(SCC(=O)NCCc3ccccc3)nn2c(C)c1Cc1c(F)cccc1Cl,active: 37%
5,Cc1ccc(C(C)C)c(OCC(=O)N2CCC(c3nc4ccccc4o3)CC2)c1,inactive: 80%
6,NC1CCSc2ccccc21 (stereo unspecified),inactive: 85%
7,COc1ccc(N(CC(=O)N2CCN(c3cccc(C)c3C)CC2)S(=O)(=O)c2c(C)noc2C)cc1,inactive: 94%
8,COc1ccc(-c2cn3nc(N4CCC(C(=O)Nc5cccc(C)c5C)CC4)sc3n2)cc1,inactive: 67%
9,Cc1c(Cl)cccc1NC(=O)CSc1nc(=O)n(Cc2ccccn2)c2c1CCC2,inactive: 105%
10,O=C(O)COc1ccccc1/C=N\n1cnnc1,inactive: 94%
11,Cc1cccc(N(C)S(=O)(=O)c2cc3c(cc2Cl)NC(=O)CO3)c1,inactive: 81%
12,Cc1nn2c(=O)cc(COC(=O)c3cccc(NC(=O)c4cccs4)c3)nc2s1,inactive: 67%
13,CCOc1ccc(NS(=O)(=O)c2ccc3[nH]c4c(c3c2)CCCC4)cc1,inactive: 76%
14,Cc1ccc(NC(=O)C(NS(=O)(=O)c2ccc3c(c2)CCC(=O)N3)c2ccccc2)cc1C (stereo unspecified),inactive: 87%
15,CCOC(=O)C1CCN(CCC(=O)Nc2ccc(Br)c(C)c2)CC1,inactive: 62%
16,O=C(CSc1nc(=O)[nH]c2c1CCCC2)Nc1ccccc1C(F)(F)F,inactive: 113%
17,CNC(=O)C1=C(C)NC(=O)NC1c1cccs1 (stereo unspecified),inactive: 99%
18,CC1CC(C)CN(c2c3c(nc4cc(-c5ccc(F)cc5)nn24)CCC3)C1 (stereo unspecified),inactive: 101%
19,COc1cc(NC(=O)Cn2nc(C(F)(F)F)c3c2CCCC3)c(OC)cc1Cl,inactive: 78%
20,O=C(Nc1ccc(F)cc1F)c1cc(-c2ccccc2O)no1,inactive: 85%
21,Cc1ccc(NC(=O)Cn2c(=O)n(CCCCC(=O)NCCc3ccccc3)c(=O)c3ccccc32)c(C)c1,inactive: 84%
22,Cc1nn2c(=O)cc(COC(=O)c3ccc(NC(=O)C4CCCCC4)cc3)nc2s1,inactive: 123%
23,CCCCOC(=O)c1ccc(NC(=O)c2cc3c(=O)n4cccc(C)c4nc3n2C)cc1,inactive: 69%
